In PubChem BioAssay AID1476 (National Center for Advancing Translational Sciences (NCATS), 2009):
About 4,500 (2.2%) of roughly 200,000 compounds were called active. The inconclusive results got no clear call from the source; some entries with a clear call stand among them for comparison. Calls follow the shape of the dose curve; as a rule, active = well fitted inhibition curve with a large enough effect; inconclusive = small, poorly fitted or top-dose-only effect, or effect the other way; inactive = flat fitted curve, though single readings scatter. Potencies of inconclusive entries are doubtful fits and often do not repeat.

molecular target: Cruzipain (Trypanosoma cruzi) (UniProt P25779); test: qHTS Assay for Promiscuous and Specific Inhibitors of Cruzain (without detergent); settings: purified cruzain, Z-FR-AMC fluorescence, no detergent; also: nearly all actives have a fitted effect of over 40% in size;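 as to max response, negative = inhibition: plate controls were enzyme without inhibitor for no effect and buffer without enzyme for full effect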
Method in brief: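 Purified cruzain at 1.5 nM, pre-incubated 15 min with compound at room temperature in 100 mM sodium acetate pH 5.5, 5 mM DTT, 0.00005% Triton X-100. Reaction started with 2 uM Z-FR-AMC; AMC fluorescence increase over 60 s gives rate.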
Potency is read from the fitted curve at half-maximal effect; tags tell the direction and shape of the fitted curve.

Sequence of UniProt P25779 (P25779 whole entry, looked up): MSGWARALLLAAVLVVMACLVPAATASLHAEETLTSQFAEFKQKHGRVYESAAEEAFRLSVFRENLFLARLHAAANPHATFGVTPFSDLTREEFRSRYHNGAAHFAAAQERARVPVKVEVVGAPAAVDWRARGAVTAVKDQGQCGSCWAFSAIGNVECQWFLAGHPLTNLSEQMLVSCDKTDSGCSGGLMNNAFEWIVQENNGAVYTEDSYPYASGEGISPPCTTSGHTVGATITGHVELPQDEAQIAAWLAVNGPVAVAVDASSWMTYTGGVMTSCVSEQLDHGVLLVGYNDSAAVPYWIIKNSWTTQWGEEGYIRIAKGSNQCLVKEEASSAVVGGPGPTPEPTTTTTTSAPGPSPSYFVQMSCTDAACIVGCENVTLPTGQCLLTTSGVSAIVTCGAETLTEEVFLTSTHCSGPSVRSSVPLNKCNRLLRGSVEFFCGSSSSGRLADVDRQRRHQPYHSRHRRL

Q: Which Potency does the source give for `COc1ccc(C(=O)Nc2ccc3c(c2)CCCN3S(=O)(=O)c2ccc(C)cc2)cc1` here?
A: Its Potency is inconclusive: 31.6 µM [inhibitor, single point].

Q: For `CC(=Nc1ccc(O)cc1)c1sc2ccccc2c1O`, which Potency is on record?
A: Its Potency is inconclusive: 31.6 µM [inhibitor, single point].

Q: How did the Potency turn out when `Cc1nc2ncnn2c(N2CCN(c3cccc(C(F)(F)F)c3)CC2)c1C` was run?
A: The Potency was inconclusive: 39.8 µM [activator, single point].

Q: With `CCOC(=O)C1=C(O)/C(=C/c2cc(OC)c(O)c(OC)c2)SC1=Nc1ccc(OC)cc1` as the compound, how does the Potency read?
A: Its Potency is inconclusive: 25.1 µM [activator, single point].

Q: For `CCOC(=O)Cc1c(C)nc2c(-c3ccc(OC)cc3)c(C)nn2c1C`, which Potency is on record?
A: The Potency was inconclusive: 39.8 µM [activator, single point].

Q: `Cc1ccc(S(=O)(=O)NCC(=O)OC(C)C(=O)Nc2ncc(Cl)cc2Cl)cc1` (stereo not given) was tested. Which Potency did it give?
A: The Potency was inconclusive: 25.1 µM [inhibitor, single point].

Q: Which max response, negative = inhibition does the source give for `O=[N+]([O-])c1cccc2ccc(/C=C/c3ccc(C(F)(F)F)cc3)nc12` here?
A: The max response, negative = inhibition was inactive: -3.75%.

Q: For `COC(=O)c1[nH]c2cc(OC)c(OC)cc2c1NC(=O)c1cccc(OC)c1`, which Potency is on record?
A: Its Potency is inconclusive: 39.8 µM [activator, single point].

Q: With `Cc1cc(N2C(=O)C(=O)/C(=C(/O)c3ccc(Cl)cc3)C2c2cccc(Br)c2)no1` (stereo not given) as the compound, how does the Potency read?
A: The Potency was inconclusive: 39.8 µM [activator, single point].

Q: How did the Potency turn out when `CC1=C(\C=C/C(C)=C/C=C\C(C)=C\C(=O)O)C(C)(C)CCC1` was run?
A: The Potency was inconclusive: 39.8 µM [activator, single point].

Q: Which Potency does the source give for `CCc1ccc(NC(=O)c2ccc(CNS(=O)(=O)c3ccc4c(c3)C(C)(C)C(=O)N4C)cc2)cc1` here?
A: Its Potency is inconclusive: 31.6 µM [activator, single point].

Q: Which Potency does the source give for `COC(=O)[C@@]1(Cc2ccc(F)cc2)[C@H]2c3cc(C(=O)N(C)C)n(CCc4ccc(O)c(O)c4)c3C[C@H]2CN1C(=O)c1ccccc1` here?
A: The Potency was inconclusive: 25.1 µM [activator, partial curve].

Q: For `CC(C)c1ccc(CC(C)C2C3=C(CCCC3=O)OC3=C2C(=O)CCC3)cc1` (stereo not given), which Potency is on record?
A: The Potency was inconclusive: 39.8 µM [activator, single point].

Q: `CCN(CC)S(=O)(=O)c1ccc(NC(=O)c2cc(-c3cccs3)nc3ccccc23)cc1` was tested. Which Potency did it give?
A: Its Potency is inconclusive: 31.6 µM [inhibitor, single point].

Q: For `COc1ccc(N2CCN(C(=O)c3c(C)oc4ncn(CC(C)C)c(=O)c34)CC2)cc1`, which max response, negative = inhibition is on record?
A: The max response, negative = inhibition was inactive: -9.1%.

Q: With `O=C(CC(=O)N/N=C/c1ccc(Cl)cc1Cl)NCc1ccccc1` as the compound, how does the Potency read?
A: The Potency was inconclusive: 25.1 µM [inhibitor, single point].

Q: `Cc1ccc2nc3sc(C(=O)Nc4ccc(F)cc4)cc3cc2c1` was tested. Which Potency did it give?
A: Its Potency is inconclusive: 15.8 µM [inhibitor, partial curve, poor fit].

Q: `COc1ccccc1CNc1nc(-c2cccc(C#N)c2)nc2ccccc12` was tested. Which Potency did it give?
A: The Potency was inconclusive: 39.8 µM [inhibitor, single point].

Q: With `N#C/C(=C\C=C\c1ccccc1)c1nc(-c2ccc3c(c2)OCO3)cs1` as the compound, how does the Potency read?
A: Its Potency is active: 25.1 µM.

Q: With `COCC(=O)Nc1ccc(-c2cn3cccnc3n2)cc1` as the compound, how does the Potency read?
A: The Potency was inconclusive: 3.98 µM [activator, single point].

Q: With `CCC1=Nc2cc(C(=O)NC3CCCC3)ccc2Sc2ccc(Cl)cc21` as the compound, how does the Potency read?
A: The Potency was active: 7.94 µM.

Q: For `CCc1nc2c(sc3nc4c(cc32)COC(C)(C)C4)c(=O)n1Cc1ccccc1`, which Potency is on record?
A: Its Potency is inconclusive: 39.8 µM [activator, single point].

Q: `CCc1ccccc1NC(=O)c1nnn(CC(=O)Nc2c(C)cc(C)cc2C)c1N` was tested. Which Potency did it give?
A: Its Potency is active: 31.6 µM.

Q: With `CC1CCCN(S(=O)(=O)c2ccc(S(=O)(=O)N3CCCN(Cc4ccccc4)C3)cc2)C1` (stereo not given) as the compound, how does the Potency read?
A: Its Potency is inconclusive: 39.8 µM [inhibitor, single point].

Q: How did the Potency turn out when `COCc1cc(C)nc(OCC(=O)N/N=C\c2cc(C)n(-c3cccc(C(F)(F)F)c3)c2C)c1C#N` was run?
A: Its Potency is inconclusive: 31.6 µM [activator, single point].

Q: `COc1ccccc1N1CCN(Cc2ccco2)CC1` was tested. Which max response, negative = inhibition did it give?
A: Its max response, negative = inhibition is inactive: -3.4%.

Q: How did the Potency turn out when `COc1ccc(-c2cc(C(F)(F)F)nc(SCC(=O)NCc3ccco3)n2)cc1OC` was run?
A: Its Potency is inconclusive: 25.1 µM [activator, single point].

Q: For `Cc1ccccc1Nc1nc(CSc2nnnn2-c2ccccc2)cs1`, which Potency is on record?
A: Its Potency is active: 20 µM.

Q: With `Clc1ccc(Oc2nc(N3CCOCC3)nc(N3CCOCC3)n2)cc1` as the compound, how does the Potency read?
A: The Potency was inconclusive: 39.8 µM [activator, single point].

Q: How did the Potency turn out when `CN(C)c1oc(-c2ccc(OCc3ccc(Cl)cc3)cc2)nc1C#N` was run?
A: The Potency was active: 20 µM.

Q: `Cc1cccc(OCC(=O)NNC(=O)Nc2cccc(Cl)c2)c1C` was tested. Which Potency did it give?
A: The Potency was inconclusive: 39.8 µM [inhibitor, single point].

Q: Which Potency does the source give for `CCOc1ccccc1Nc1nc(-c2sc(NC(=O)c3ccccc3)nc2C)cs1` here?
A: Its Potency is active: 12.6 µM.

Q: For `COCC(=O)NCCc1nc2ccccc2[nH]1`, which Potency is on record?
A: The Potency was inconclusive: 25.1 µM [inhibitor, partial curve].

Q: Which Potency does the source give for `COc1ccccc1Cn1nnc2c(=O)[nH]c(C3CCN(C(=O)c4ccc(C)cc4)CC3)nc21` here?
A: Its Potency is inconclusive: 31.6 µM [activator, single point].

Q: How did the Potency turn out when `CC1CN(C(=O)c2ccc(CNS(=O)(=O)c3cccc(C(F)(F)F)c3)cc2)CC(C)O1` (stereo not given) was run?
A: The Potency was inconclusive: 25.1 µM [activator, partial curve].

Q: `CCc1ccc(NC(=O)CS(=O)CC(=O)NCCCc2ccccc2)cc1` (stereo not given) was tested. Which Potency did it give?
A: Its Potency is inconclusive: 39.8 µM [inhibitor, single point].

Q: How did the max response, negative = inhibition turn out when `N#CC(C#N)=C1C=CC=CN1/C(=C\c1ccco1)C(=O)c1ccc(Cl)cc1` was run?
A: Its max response, negative = inhibition is inactive: -14.3%.

Q: Which max response, negative = inhibition does the source give for `Cn1cc(C(=O)N/N=C/C=C/c2ccccc2)ccc1=O` here?
A: The max response, negative = inhibition was inactive: -6.09%.

Q: `Cc1ccc(N2CCN(S(=O)(=O)c3nnc(NC(=O)c4cccc(F)c4)s3)CC2)cc1` was tested. Which max response, negative = inhibition did it give?
A: Its max response, negative = inhibition is inactive: -4.18%.

Q: `CC(=O)OC1CCC2(C)C(COc3ccc4ccc(=O)oc4c3)C(C)(O)CCC2C1(C)C` (stereo not given) was tested. Which Potency did it give?
A: The Potency was inconclusive: 25.1 µM [activator, single point].

Q: With `CCCCCOC(=O)C1=C(C)N(C)C(=O)NC1c1cc(Br)c(O)c(OC)c1` (stereo not given) as the compound, how does the Potency read?
A: Its Potency is inconclusive: 39.8 µM [activator, single point].

Q: For `N#Cc1nc(-c2cccs2)oc1N1CCN(Cc2ccccc2)CC1`, which Potency is on record?
A: Its Potency is inconclusive: 25.1 µM [activator, partial curve].

Q: How did the max response, negative = inhibition turn out when `COc1ccc(-c2nc(-c3ccccc3)c(-c3cccs3)[nH]2)cc1OC` was run?
A: Its max response, negative = inhibition is inactive: 25.1%.

Q: For `Nc1c(-c2cccs2)cnn1-c1nc(-c2ccc(Cl)cc2Cl)cs1`, which Potency is on record?
A: Its Potency is active: 25.1 µM.

Q: For `Cc1ccc(-c2cn3cccnc3n2)cc1NC(=O)c1c(-c2ccccc2Cl)noc1C`, which Potency is on record?
A: Its Potency is inconclusive: 25.1 µM [activator, partial curve].

Q: `CCOc1ccc2nc(N/C(N)=N/C(=S)Nc3cccc(C)c3)nc(C)c2c1` was tested. Which Potency did it give?
A: Its Potency is active: 31.6 µM.

Q: For `Cc1ccc(-c2cc(C(=O)Nc3cc(C)ccc3C)[nH]n2)c(O)c1`, which Potency is on record?
A: The Potency was active: 12.6 µM.

Q: How did the Potency turn out when `O=C(NC(=S)Nc1ccccc1N1CCOCC1)c1ccc(-c2cccc(Cl)c2)o1` was run?
A: Its Potency is inconclusive: 31.6 µM [inhibitor, single point].

Q: `CC1=NN(C(N)=S)C(=O)C1N=Nc1ccc(C)cc1C` (stereo not given) was tested. Which Potency did it give?
A: The Potency was inconclusive: 39.8 µM [inhibitor, single point].

Q: With `Cc1c(Cl)cccc1-c1ccc(C(=O)Nc2ccc3oc(-c4cccnc4)nc3c2)o1` as the compound, how does the Potency read?
A: The Potency was inconclusive: 25.1 µM [inhibitor, single point].

Q: With `C=CCC(C)(O)CCc1ccccc1` (stereo not given) as the compound, how does the max response, negative = inhibition read?
A: Its max response, negative = inhibition is inactive: -6.06%.

Q: With `COc1ccc(OC)c(NC(=O)c2cc3n(n2)C(C(F)(F)F)CC(c2ccc4c(c2)OCO4)N3)c1` (stereo not given) as the compound, how does the Potency read?
A: The Potency was inconclusive: 39.8 µM [inhibitor, single point].

Q: For `c1ccc(C(c2ccccc2)N2CCN(Cc3nnnn3C3CCCCC3)CC2)cc1`, which Potency is on record?
A: Its Potency is inconclusive: 39.8 µM [activator, single point].

Q: For `COCCCNc1oc(-c2ccc(COc3ccccc3C)o2)nc1C#N`, which Potency is on record?
A: Its Potency is inconclusive: 39.8 µM [activator, single point].

Q: How did the max response, negative = inhibition turn out when `Cc1ccc(S(=O)(=O)n2cnc3ccccc32)c(C)c1` was run?
A: The max response, negative = inhibition was inactive: 3.08%.

Q: `CCOC(=O)N1CCN(Cc2oc(CO)cc(=O)c2O)CC1` was tested. Which Potency did it give?
A: Its Potency is active: 1.58 µM.

Q: With `Cc1ccc(-n2ncc3c(NCCc4ccccc4)ncnc32)cc1Cl` as the compound, how does the max response, negative = inhibition read?
A: The max response, negative = inhibition was inactive: 1.98%.

Q: `COc1ccc(-c2c(C#N)c(N)nc3sc(C(=O)c4ccc(C)cc4)c(N)c23)cc1` was tested. Which Potency did it give?
A: Its Potency is inconclusive: 39.8 µM [inhibitor, single point].

Q: How did the Potency turn out when `O=C(NNC(=O)c1cc(-c2ccccc2)n(-c2ccccc2)n1)c1cccc([N+](=O)[O-])c1` was run?
A: The Potency was inconclusive: 25.1 µM [inhibitor, single point].

Q: `O=S(=O)(NC1CCCC1)c1cccc(S(=O)(=O)N2CCC(n3nnc4ccccc43)CC2)c1` was tested. Which Potency did it give?
A: Its Potency is inconclusive: 39.8 µM [inhibitor, single point].

Q: Which max response, negative = inhibition does the source give for `COc1ncc2nc(-c3ccccc3)c(=O)n(C)c2n1` here?
A: Its max response, negative = inhibition is inactive: -4.68%.

Q: How did the Potency turn out when `CCOC(=O)c1c(NC(=O)CN2CCN(C(=O)c3ccco3)CC2)sc2c1CCCC2` was run?
A: The Potency was inconclusive: 31.6 µM [activator, single point].

Q: How did the Potency turn out when `CC1CC(C)CN(C(=O)c2ccc3c(c2NCCO)C(=O)c2ccccc2C3=O)C1` (stereo not given) was run?
A: The Potency was inconclusive: 39.8 µM [activator, single point].

Q: With `COc1ccc(Nc2cc(C(=O)NCCCN(C)Cc3ccccc3)c3ccccc3n2)cc1OC` as the compound, how does the max response, negative = inhibition read?
A: The max response, negative = inhibition was inactive: -11.9%.

Q: `Cc1[nH]n(-c2ccc(Cl)cc2)c(=O)c1C=Nc1ccc(S(=O)(=O)N2CCOCC2)cc1` was tested. Which Potency did it give?
A: Its Potency is inconclusive: 31.6 µM [activator, single point].
